Data on 6 molecules can be found in patent US20200308244A1 (ORIONIS BIOSCIENCES, published 2020).

Common to all, as to experiment: cell-based or functional assay
Assay [1] concerns the target T1, type I interferon-α/β receptor (IFNAR), composed of the IFNAR1 and IFNAR2 subunits (human, UniProt P17181 28-557; P48551 27-515).
T1 sequence (looked up) 1: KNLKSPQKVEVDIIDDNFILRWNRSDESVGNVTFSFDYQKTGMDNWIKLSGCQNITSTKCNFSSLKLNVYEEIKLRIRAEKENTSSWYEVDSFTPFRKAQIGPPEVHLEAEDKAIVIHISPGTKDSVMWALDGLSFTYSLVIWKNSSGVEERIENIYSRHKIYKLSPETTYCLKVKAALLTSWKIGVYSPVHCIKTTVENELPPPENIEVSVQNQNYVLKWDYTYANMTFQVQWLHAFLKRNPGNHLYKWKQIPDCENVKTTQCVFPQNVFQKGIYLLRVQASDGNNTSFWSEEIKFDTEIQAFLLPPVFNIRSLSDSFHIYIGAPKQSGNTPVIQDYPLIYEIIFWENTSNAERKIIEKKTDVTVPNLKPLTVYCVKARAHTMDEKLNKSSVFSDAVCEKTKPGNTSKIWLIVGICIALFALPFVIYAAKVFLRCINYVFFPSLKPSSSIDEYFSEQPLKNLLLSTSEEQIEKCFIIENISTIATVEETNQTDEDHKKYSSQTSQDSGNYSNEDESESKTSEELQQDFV
T1 sequence (looked up) 2: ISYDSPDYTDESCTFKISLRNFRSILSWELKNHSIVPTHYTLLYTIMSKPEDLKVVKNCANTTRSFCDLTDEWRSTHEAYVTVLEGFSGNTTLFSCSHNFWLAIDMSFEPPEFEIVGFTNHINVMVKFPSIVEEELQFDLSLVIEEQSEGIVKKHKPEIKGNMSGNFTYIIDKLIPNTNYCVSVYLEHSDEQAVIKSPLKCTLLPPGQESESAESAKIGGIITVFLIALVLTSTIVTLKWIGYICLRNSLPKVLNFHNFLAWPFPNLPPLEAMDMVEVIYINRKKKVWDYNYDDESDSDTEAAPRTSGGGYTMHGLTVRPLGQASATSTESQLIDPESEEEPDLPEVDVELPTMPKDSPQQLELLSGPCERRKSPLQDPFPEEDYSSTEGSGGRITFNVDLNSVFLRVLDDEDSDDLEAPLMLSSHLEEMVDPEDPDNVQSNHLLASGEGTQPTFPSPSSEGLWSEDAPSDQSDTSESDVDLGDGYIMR

Assay [2] has as its target T1, type I interferon-α/β receptor (IFNAR), …. This is another data set of the same source.
For assay [3], the target named is T2, human Clec9A (human, UniProt Q6UXN8 1-241).
The target in assay [4] is T2, human Clec9A. The source holds these as a separate data set.
T2 sequence (Q6UXN8 whole entry): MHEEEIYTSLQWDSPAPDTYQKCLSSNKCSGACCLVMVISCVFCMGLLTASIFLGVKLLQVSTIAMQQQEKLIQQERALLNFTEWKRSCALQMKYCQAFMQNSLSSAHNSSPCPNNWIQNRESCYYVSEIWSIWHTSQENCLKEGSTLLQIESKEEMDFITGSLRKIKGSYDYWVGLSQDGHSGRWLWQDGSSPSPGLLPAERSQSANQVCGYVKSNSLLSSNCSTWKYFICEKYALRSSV

B1: R1CHCL50-5*GGS-human IgG1 Fc (hole; P-1479) + human IgG1 Fc (knob)-10*GGS-IFNα1(C86S) (P-2213) (Fc fusion)
chain 1: QVQLVESGGGLVHPGGSLRLSCAASGSFSSINVMGWYRQAPGKERELVARITNLGLPNYADSVTGRFTISRDNAKNTVYLQMNSLKPEDTAVYYCYLVALKAEYWGQGTQVTVSSGGSGGSGGSGGSGGSDKTHTCPPCPAPEAAGGPSVFLFPPKPKDTLMISRTPEVTCVVVDVSHEDPEVKFNWYVDGVEVHNAKTKPREEQYNSTYRVVSVLTVLHQDWLNGKEYKCQVSNKALPAPIEKTISKAKGQPREPQVCTLPPSRDELTKNQVSLSCAVKGFYPSDIAVEWESNGQPENNYKTTPPVLDSDGSFFLVSKLTVDKSRWQQGNVFSCSVMHEALHNHYTQKSLSLSPGK
chain 2: [human IgG1 Fc with changes left out here]GGSGGSGGSGGSGGSGGSGGSGGSGGSGGSCDLPETHSLDNRRTLMLLAQMSRISPSSCLMDRHDFGFPQEEFDGNQFQKAPAISVLHELIQQIFNLFTTKDSSAAWDEDLLDKFSTELYQQLNDLEACVMQEERVGETPLMNADSILAVKKYFRRITLYLTEKKYSPCAWEVVRAEIMRSLSLSTNLQERLRRKE
In the case of B1, in assay [1], the “EC50 6-16 reporter activity, HL116” value is above 1 nM. The “EC50 pSTAT1 on primary cDC1” value in assay [2] was 20 pM. Moreover, the “selectivity window, pSTAT1 on cDC1 versus non-cDC1 cells” value in assay [3] was above 300 fold.

B2: R1CHCL50-5*GGS-human IgG1 Fc (hole; P-1479) + human IgG1 Fc (knob)-10*GGS-IFNα1(C86S, A146G) (P-2214) (Fc fusion)
chain 1: QVQLVESGGGLVHPGGSLRLSCAASGSFSSINVMGWYRQAPGKERELVARITNLGLPNYADSVTGRFTISRDNAKNTVYLQMNSLKPEDTAVYYCYLVALKAEYWGQGTQVTVSSGGSGGSGGSGGSGGSDKTHTCPPCPAPEAAGGPSVFLFPPKPKDTLMISRTPEVTCVVVDVSHEDPEVKFNWYVDGVEVHNAKTKPREEQYNSTYRVVSVLTVLHQDWLNGKEYKCQVSNKALPAPIEKTISKAKGQPREPQVCTLPPSRDELTKNQVSLSCAVKGFYPSDIAVEWESNGQPENNYKTTPPVLDSDGSFFLVSKLTVDKSRWQQGNVFSCSVMHEALHNHYTQKSLSLSPGK
chain 2: [human IgG1 Fc with changes left out here]GGSGGSGGSGGSGGSGGSGGSGGSGGSGGSCDLPETHSLDNRRTLMLLAQMSRISPSSCLMDRHDFGFPQEEFDGNQFQKAPAISVLHELIQQIFNLFTTKDSSAAWDEDLLDKFSTELYQQLNDLEACVMQEERVGETPLMNADSILAVKKYFRRITLYLTEKKYSPCAWEVVRGEIMRSLSLSTNLQERLRRKE
Consider B2, for which, in assay [1], the “EC50 6-16 reporter activity, HL116 (no reporter activity detected at the highest concentration)” value is above 1 nM and the “EC50 6-16 reporter activity, HL116-CLEC9A” value turned out to be 0.019 nM. Besides, in assay [4], the “ratio of EC50 6-16 reporter activity, HL116 / HL116-CLEC9A” value (from here on “ratio … HL116 / HL116-CLEC9A”) is above 50 ratio.

B3: R1CHCL50-5*GGS-human IgG1 Fc (hole; P-1479) + human IgG1 Fc (knob)-10*GGS-IFNα1(C86Y, A146G) (P-2217) (Fc fusion)
chain 1: QVQLVESGGGLVHPGGSLRLSCAASGSFSSINVMGWYRQAPGKERELVARITNLGLPNYADSVTGRFTISRDNAKNTVYLQMNSLKPEDTAVYYCYLVALKAEYWGQGTQVTVSSGGSGGSGGSGGSGGSDKTHTCPPCPAPEAAGGPSVFLFPPKPKDTLMISRTPEVTCVVVDVSHEDPEVKFNWYVDGVEVHNAKTKPREEQYNSTYRVVSVLTVLHQDWLNGKEYKCQVSNKALPAPIEKTISKAKGQPREPQVCTLPPSRDELTKNQVSLSCAVKGFYPSDIAVEWESNGQPENNYKTTPPVLDSDGSFFLVSKLTVDKSRWQQGNVFSCSVMHEALHNHYTQKSLSLSPGK
chain 2: [human IgG1 Fc with changes left out here]GGSGGSGGSGGSGGSGGSGGSGGSGGSGGSCDLPETHSLDNRRTLMLLAQMSRISPSSCLMDRHDFGFPQEEFDGNQFQKAPAISVLHELIQQIFNLFTTKDSSAAWDEDLLDKFYTELYQQLNDLEACVMQEERVGETPLMNADSILAVKKYFRRITLYLTEKKYSPCAWEVVRGEIMRSLSLSTNLQERLRRKE
Regarding B3, in assay [1], the “EC50 6-16 reporter activity, HL116 (no reporter activity detected at the highest concentration)” value is above 1 nM and the “EC50 6-16 reporter activity, HL116-CLEC9A” value is 0.007 nM. Further, the “ratio … HL116 / HL116-CLEC9A” value in assay [4] is above 140 ratio.

B4: R1CHCL50-5*GGS-human IgG1 Fc (hole; P-1479) + human IgG1 Fc (knob)-10*GGS-IFNα1(C86S, M149V) (P-2215) (Fc fusion)
chain 1: QVQLVESGGGLVHPGGSLRLSCAASGSFSSINVMGWYRQAPGKERELVARITNLGLPNYADSVTGRFTISRDNAKNTVYLQMNSLKPEDTAVYYCYLVALKAEYWGQGTQVTVSSGGSGGSGGSGGSGGSDKTHTCPPCPAPEAAGGPSVFLFPPKPKDTLMISRTPEVTCVVVDVSHEDPEVKFNWYVDGVEVHNAKTKPREEQYNSTYRVVSVLTVLHQDWLNGKEYKCQVSNKALPAPIEKTISKAKGQPREPQVCTLPPSRDELTKNQVSLSCAVKGFYPSDIAVEWESNGQPENNYKTTPPVLDSDGSFFLVSKLTVDKSRWQQGNVFSCSVMHEALHNHYTQKSLSLSPGK
chain 2: [human IgG1 Fc with changes left out here]GGSGGSGGSGGSGGSGGSGGSGGSGGSGGSCDLPETHSLDNRRTLMLLAQMSRISPSSCLMDRHDFGFPQEEFDGNQFQKAPAISVLHELIQQIFNLFTTKDSSAAWDEDLLDKFSTELYQQLNDLEACVMQEERVGETPLMNADSILAVKKYFRRITLYLTEKKYSPCAWEVVRAEIVRSLSLSTNLQERLRRKE
For B4, in assay [1], the “EC50 6-16 reporter activity, HL116 (no reporter activity detected at the highest concentration)” value is above 1 nM and the “EC50 6-16 reporter activity, HL116-CLEC9A” value was determined as 0.06 nM. Also, the “ratio … HL116 / HL116-CLEC9A” value in assay [4] was above 15 ratio.

B5: R1CHCL50-5*GGS-human IgG1 Fc (hole; P-1479) + human IgG1 Fc (knob)-10*GGS-IFNα1(C86Y, M149V) (P-2218) (Fc fusion)
chain 1: QVQLVESGGGLVHPGGSLRLSCAASGSFSSINVMGWYRQAPGKERELVARITNLGLPNYADSVTGRFTISRDNAKNTVYLQMNSLKPEDTAVYYCYLVALKAEYWGQGTQVTVSSGGSGGSGGSGGSGGSDKTHTCPPCPAPEAAGGPSVFLFPPKPKDTLMISRTPEVTCVVVDVSHEDPEVKFNWYVDGVEVHNAKTKPREEQYNSTYRVVSVLTVLHQDWLNGKEYKCQVSNKALPAPIEKTISKAKGQPREPQVCTLPPSRDELTKNQVSLSCAVKGFYPSDIAVEWESNGQPENNYKTTPPVLDSDGSFFLVSKLTVDKSRWQQGNVFSCSVMHEALHNHYTQKSLSLSPGK
chain 2: [human IgG1 Fc with changes left out here]GGSGGSGGSGGSGGSGGSGGSGGSGGSGGSCDLPETHSLDNRRTLMLLAQMSRISPSSCLMDRHDFGFPQEEFDGNQFQKAPAISVLHELIQQIFNLFTTKDSSAAWDEDLLDKFYTELYQQLNDLEACVMQEERVGETPLMNADSILAVKKYFRRITLYLTEKKYSPCAWEVVRAEIVRSLSLSTNLQERLRRKE
In the case of B5, in assay [1], the “EC50 6-16 reporter activity, HL116 (no reporter activity detected at the highest concentration)” value is above 1 nM and the “EC50 6-16 reporter activity, HL116-CLEC9A” value was 0.015 nM. The “ratio … HL116 / HL116-CLEC9A” value in assay [4] is above 65 ratio.

B6: R1CHCL50-20*GGS-human IgG1 Fc (hole, effector knock-out; P-1451) + human IgG1 Fc (knob, effector knock-out)-20*GGS-IFNα1 (P-1852) (Fc fusion)
chain 1: QVQLVESGGGLVHPGGSLRLSCAASGSFSSINVMGWYRQAPGKERELVARITNLGLPNYADSVTGRFTISRDNAKNTVYLQMNSLKPEDTAVYYCYLVALKAEYWGQGTQVTVSSGGSGGSGGSGGSGGSGGSGGSGGSGGSGGSGGSGGSGGSGGSGGSGGSGGSGGSGGSGGSDKTHTCPPCPAPEAAGGPSVFLFPPKPKDTLMISRTPEVTCVVVDVSHEDPEVKFNWYVDGVEVHNAKTKPREEQYNSTYRVVSVLTVLHQDWLNGKEYKCQVSNKALPAPIEKTISKAKGQPREPQVCTLPPSRDELTKNQVSLSCAVKGFYPSDIAVEWESNGQPENNYKTTPPVLDSDGSFFLVSKLTVDKSRWQQGNVFSCSVMHEALHNHYTQKSLSLSPGK
chain 2: [human IgG1 Fc with changes left out here]GGSGGSGGSGGSGGSGGSGGSGGSGGSGGSGGSGGSGGSGGSGGSGGSGGSGGSGGSGGSCDLPETHSLDNRRTLMLLAQMSRISPSSCLMDRHDFGFPQEEFDGNQFQKAPAISVLHELIQQIFNLFTTKDSSAAWDEDLLDKFCTELYQQLNDLEACVMQEERVGETPLMNADSILAVKKYFRRITLYLTEKKYSPCAWEVVRAEIMRSLSLSTNLQERLRRKE
Take B6: in assay [1], the “EC50 6-16 reporter activity, HL116” value was above 1 nM and the “EC50 6-16 reporter activity, HL116-CLEC9A” value was 0.003 nM. Besides, in assay [4], the “ratio … HL116 / HL116-CLEC9A” value was above 330 ratio. Besides, the “EC50 of luciferase (6-16 reporter) induction in HL116-hClec9A (target) cells” value in assay [2] came to 0.3 ng/mL.
